# From PubChem BioAssay AID1240 (Sanford-Burnham Center for Chemical Genomics, 2008)
# About 800 (1.6%) of roughly 50,000 compounds showed an effect of 50% or more. This is one part of the list.
# Target: Bcl-2-like protein 10 (Homo sapiens) (UniProt Q9HD36)
# Assay: TR3 peptide-Bcl-B binding displacers, biochemical primary FP assay, phenotype converters (AID 1240);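 note: 0% = Bcl-B with tracer peptide and DMSO and 100% = tracer peptide lacking Bcl-B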
# Settings: GST-Bcl-B / FITC-TR3 peptide fluorescence polarization; stronger effect = higher value; compound at 3.75 mg/L
# Chain of UniProt Q9HD36 (Q9HD36 whole entry, looked up): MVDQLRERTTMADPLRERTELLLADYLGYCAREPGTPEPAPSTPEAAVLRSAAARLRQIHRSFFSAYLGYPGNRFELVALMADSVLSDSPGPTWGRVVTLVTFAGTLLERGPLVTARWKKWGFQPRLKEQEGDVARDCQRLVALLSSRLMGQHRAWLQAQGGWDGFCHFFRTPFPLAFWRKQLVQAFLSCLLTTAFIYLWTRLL
row,Structure (SMILES),displacement
1,CN(C)C=Nc1ccn(Cc2ccccc2)c(=O)c1C#N,-4.1%
2,O=C(Nc1cc(C(F)(F)F)cc(C(F)(F)F)c1)c1cc2ccccc2o1,-1.9%
3,O=C1/C(=C/c2c(Cl)cccc2Cl)SC(=S)N1Cc1ccco1,9.8%
4,COc1ccc(CN2CCN(C3CC4CCC3C4)CC2)c(OC)c1 (stereo not given),-14.8%
5,Cc1ccc(C(C)C)c(OCCOc2ccc(/C=C3/SC(=S)N(C)C3=O)cc2)c1,12.4%
6,CCCCCCOc1ccc(N2C(=O)CC(N3CCN(c4ccccn4)CC3)C2=O)cc1 (stereo not given),5.1%
7,Cc1ccc2c(c1)N(C(=O)C(C)N1C(=O)c3ccccc3C1=O)C(C)(C)c1ssc(=S)c1-2 (stereo not given),10.1%
8,Cc1ccc(N2CC(C(=O)Nc3cccc(C)c3C)CC2=O)cc1 (stereo not given),-12.9%
9,CC1(C)C(C=C(Cl)Cl)C1C(=O)Nc1ccc(S(N)(=O)=O)cc1 (stereo not given),22.3%
10,CCc1ccc(NC(=O)C(=O)NCCN2CCN(C(=O)C(c3ccccc3)c3ccccc3)CC2)cc1,10.5%
11,CCN(CC)CCN1C(=O)C(O)=C(C(=O)/C=C/c2ccccc2)C1c1ccccc1Cl (stereo not given),9.2%
12,CC(C)c1nnc(NC(=O)Nc2ccc(Cl)cc2)s1,2.3%
13,Cc1ccc([N+](=O)[O-])cc1-c1ccc(-c2nc3sc4c(c3c(=O)[nH]2)CCCC4)o1,-9.7%
14,COc1ccccc1N=Cc1c(O)n(-c2ccccc2Cl)c(=O)[nH]c1=O,-6.6%
15,CCc1ccc(C2Nc3ccccc3NC3=C2C(=O)CC(c2ccc(OC)c(OC)c2)C3)cc1 (stereo not given),-5.3%
16,CCc1cccc(NC(=O)c2ccc(Br)o2)c1,-11.1%
17,COCCNC(=O)C(=O)Nc1cc(C)cc(C)c1,9.1%
18,O=C(Cc1ccccc1)N/N=C/c1ccc2ccccc2c1,-4%
19,CCOC(=O)c1c(NC(=S)NC(=O)c2ccc(OC)cc2)sc2c1CCCCC2,-0.1%
20,O=C(CSc1nnnn1-c1ccccc1)Nc1ccc(C(=O)O)cc1,-23.7%
21,CC(C)(C)NC(=O)c1ccc(-c2ccc(Br)cc2)o1,9.9%
22,COc1ccc(Cl)cc1NC(=O)c1cc2cc([N+](=O)[O-])ccc2oc1=O,12.8%
23,CC1CCN(c2ccc(C=C3C(=O)c4ccccc4C3=O)cc2[N+](=O)[O-])CC1,-1.4%
24,Cc1ccc(N(CC(O)Cn2c3ccccc3c3ccccc32)S(C)(=O)=O)cc1 (stereo not given),5.5%

row,Structure (SMILES),displacement
1,Cc1ccc(Cn2c(-c3nonc3N)nc3ccccc32)cc1,15.1%
2,Cc1ccc(NC(=O)/C(=C/c2ccc(N(C)C)cc2)NC(=O)c2ccccc2)cc1,-3.9%
3,CCOc1ccc(/C=C2\SC(=NCc3ccccc3)N(Cc3ccccc3)C2=O)cc1,5.2%
4,CCC(=Nc1ccccc1OC)C1=C(O)CC(C)(C)CC1=O,6.6%
5,O=C(O)CN1C(=O)c2cccc3c(I)cc(Br)c1c23,12%
6,CCc1c(C#N)c(N)nc(SCC(=O)c2cc3ccccc3oc2=O)c1C#N,5.7%
7,COC(=O)C1=C(O)/C(=C\c2cccc(Cl)c2)N=C1C,-3.2%
8,CCOCCOC(=O)c1ccc(NC(=O)c2ccc(C(=O)C(=O)c3ccccc3)cc2)cc1,-0.6%
9,COC(=O)c1c(NC(=O)/C=C/c2ccco2)sc(C)c1C,-12.6%
10,Cc1ccc2nc(-c3ccc(NC(=S)NC(=O)c4ccco4)cc3)sc2c1,44.4%
11,N/C(=N\OS(=O)(=O)c1ccc([N+](=O)[O-])cc1)c1ccccn1,2.1%
12,Cc1ccc(S(=O)(=O)NCc2ccncc2)cc1[N+](=O)[O-],-3.8%
13,CCSc1nnc(NC(=O)/C=C/c2ccc(F)cc2)s1,-4.2%
14,Cc1cccc(N=C2NC(=O)/C(=C\c3cccs3)S2)c1C,-3.6%
15,COc1ccc(CN2CCN(Cc3ccccc3[N+](=O)[O-])CC2)c(OC)c1,-77.9%
16,Cc1ccccc1NC(=O)c1c(NC(=O)c2ccc([N+](=O)[O-])cc2)sc2c1CCCC2,-0.4%
17,COc1cc([N+](=O)[O-])ccc1-c1ccc(/C=C2\C(=O)NC(=O)N(c3ccc(C)c(C)c3)C2=O)o1,75.5%
18,Clc1ccccc1Cc1noc(-c2ccc(Br)cc2)n1,8.2%
19,CN(Cc1ccccc1)C(NC(=O)c1ccccc1[N+](=O)[O-])C(Cl)(Cl)Cl (stereo not given),-7.5%
20,COc1ccccc1C(=O)N1CCN(S(=O)(=O)c2ccc(Cl)cc2)CC1,-15.8%
21,CCN1CCCC1CNC(=O)c1cc(OC)c(OC)c(OC)c1 (stereo not given),6.8%
22,N/C(=N\OC(=O)c1cccc(Br)c1)c1ccc(Cl)cc1,5.5%
23,CCc1c(C)c2ccc(OC(=O)c3ccccc3)cc2oc1=O,-1%
24,Cc1cc(/C=C2/NC(=S)NC2=O)c(C)n1-c1ccc(N2CCOCC2)cc1,-9%

row,Structure (SMILES),displacement
1,CCCC(CCC)=C(C#N)C(=O)OCC,0.7%
2,COc1ccc(/C=C/C(=O)Nc2c(C(C)C)cccc2C(C)C)cc1OC,2.5%
3,CCOc1ccc(N(CC(=O)Nc2ccccc2OC)S(C)(=O)=O)cc1,-9%
4,CCCOC(=O)c1c(-c2cc(C)ccc2C)csc1N,-0.6%
5,Cc1cc(Br)ccc1NC(=O)c1cccc(N(C)C)c1,-7.6%
6,O=C(Nc1nncs1)c1cc(-c2cccc(Br)c2)nc2ccccc12,-22.6%
7,O=C1S/C(=C/c2ccc3c(c2)OCO3)C(=O)N1CN1CCCC1,9.4%
8,COc1ccc(OC(C)C(=O)Nc2ccc(OC)cc2OC)cc1 (stereo not given),11.9%
9,O=C1CSC(=S)N1c1cccc(Br)c1,16.6%
10,CCOCCOC(=O)c1cccc(NC(=O)Nc2ccc(Cl)cc2)c1,5.8%
11,C=COCCn1c2ccccc2c2cc(Br)ccc21,-1.9%
12,COC(=O)c1ccc(NC(=O)C2C3C=CC(C4CC34)C2C(=O)O)cc1 (stereo not given),-3.2%
13,COc1ccc(C2/C(=C(\O)c3ccccc3)C(=O)C(=O)N2CCN(C)C)cc1 (stereo not given),1.2%
14,COc1ccccc1-c1nc(-c2ccccn2)no1,-11.3%
15,COc1cc(C(=S)N2CCC(C)CC2)ccc1O,-3.5%
16,COc1ccc(CC(=O)Nc2ccccc2Br)cc1OC,-2.7%
17,O=C(/C=C/c1ccc(Cl)cc1)Nc1cccc(Br)c1,8%
18,O=C(Nc1ccc(Cl)c(C(F)(F)F)c1)C(c1ccccc1)c1ccccc1,19.1%
19,CCOC(=O)C1=CN(c2ccc(C)cc2)C=C(C(=O)OCC)C1c1ccc(C)s1,8.8%
20,CC(=O)CCc1oc2ccc(C)cc2c1-c1ccc(Br)cc1,-6%
21,COc1ccc(Cc2cnc(NC(C)=O)s2)cc1,3.9%
22,COc1ccc(/C=C2\C(=O)NC(=O)N(c3ccc(Br)cc3)C2=O)cc1[N+](=O)[O-],-5.8%
